Data on two molecules can be found in US20210388049A1 (1GLOBE BIOMEDICAL, published 2021).

Assay [1] concerns the target T1, human PDL1 transgenically expressed on DLD1 cells (human, UniProt Q9NZQ7).
T1 construct: whole, on cells; also called cell surface PDL1; PDLL
Description: FACS on DLD1 cells expressing human PDL1, fluorescent anti-human-IgG detection; mean, SD 782. On the procedure:
(§1) To test the ability of the proteins to bind cell surface PDL1, we used DLD1 cells expressing transgenically expressed human PDLL. […] Briefly, 10⁵ cells were incubated with different concentrations of the protein for 30 minutes at 4° C. Cells were washed with PBS and incubated with a fluorescent, anti-human-IgG antibody for 30 minutes at 4° C. Cells were again washed with PBS and binding was detected by FACS.

Assay [2] concerns the target T2, IL2 receptor on human non-Treg (CD4+CD25-) cells (human, UniProt P14784 27-551; P31785 23-369).
T2 sequence (looked up) 1: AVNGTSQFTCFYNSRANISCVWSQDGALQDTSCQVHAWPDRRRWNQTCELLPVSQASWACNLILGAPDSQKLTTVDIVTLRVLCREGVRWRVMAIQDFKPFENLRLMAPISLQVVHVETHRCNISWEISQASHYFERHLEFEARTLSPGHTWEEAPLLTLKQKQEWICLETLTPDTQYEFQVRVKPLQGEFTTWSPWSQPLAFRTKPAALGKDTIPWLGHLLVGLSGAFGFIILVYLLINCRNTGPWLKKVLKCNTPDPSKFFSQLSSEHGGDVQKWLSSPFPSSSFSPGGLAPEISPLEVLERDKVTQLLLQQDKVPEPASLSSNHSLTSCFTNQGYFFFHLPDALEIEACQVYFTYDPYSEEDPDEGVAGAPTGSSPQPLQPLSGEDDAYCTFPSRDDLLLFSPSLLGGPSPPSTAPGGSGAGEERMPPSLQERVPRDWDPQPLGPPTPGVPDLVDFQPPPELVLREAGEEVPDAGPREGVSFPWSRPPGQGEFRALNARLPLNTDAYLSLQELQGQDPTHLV
T2 sequence (looked up) 2: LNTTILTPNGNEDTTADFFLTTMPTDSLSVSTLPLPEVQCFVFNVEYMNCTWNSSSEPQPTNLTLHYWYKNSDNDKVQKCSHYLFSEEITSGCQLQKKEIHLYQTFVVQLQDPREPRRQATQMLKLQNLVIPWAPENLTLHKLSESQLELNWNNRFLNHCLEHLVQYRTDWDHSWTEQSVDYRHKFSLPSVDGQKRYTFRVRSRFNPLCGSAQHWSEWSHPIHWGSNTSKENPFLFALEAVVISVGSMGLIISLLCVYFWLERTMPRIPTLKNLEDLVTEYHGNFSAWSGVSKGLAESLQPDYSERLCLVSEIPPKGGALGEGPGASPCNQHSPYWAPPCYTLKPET
Put plainly: cell-based or functional assay.

The target of assay [3] is T3, IL2 receptor on human Treg (CD4+CD25high) cells (human, UniProt P01589 22-272; P14784 27-551; P31785 23-369).
T3 sequence (looked up) 1: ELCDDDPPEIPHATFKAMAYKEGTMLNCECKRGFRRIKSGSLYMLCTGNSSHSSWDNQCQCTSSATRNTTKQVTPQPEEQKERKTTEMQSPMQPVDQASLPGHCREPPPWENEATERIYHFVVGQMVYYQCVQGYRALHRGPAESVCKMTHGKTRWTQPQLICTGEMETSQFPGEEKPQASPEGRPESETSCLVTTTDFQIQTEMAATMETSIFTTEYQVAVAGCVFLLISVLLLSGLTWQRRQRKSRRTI
T3 sequence (looked up) 2: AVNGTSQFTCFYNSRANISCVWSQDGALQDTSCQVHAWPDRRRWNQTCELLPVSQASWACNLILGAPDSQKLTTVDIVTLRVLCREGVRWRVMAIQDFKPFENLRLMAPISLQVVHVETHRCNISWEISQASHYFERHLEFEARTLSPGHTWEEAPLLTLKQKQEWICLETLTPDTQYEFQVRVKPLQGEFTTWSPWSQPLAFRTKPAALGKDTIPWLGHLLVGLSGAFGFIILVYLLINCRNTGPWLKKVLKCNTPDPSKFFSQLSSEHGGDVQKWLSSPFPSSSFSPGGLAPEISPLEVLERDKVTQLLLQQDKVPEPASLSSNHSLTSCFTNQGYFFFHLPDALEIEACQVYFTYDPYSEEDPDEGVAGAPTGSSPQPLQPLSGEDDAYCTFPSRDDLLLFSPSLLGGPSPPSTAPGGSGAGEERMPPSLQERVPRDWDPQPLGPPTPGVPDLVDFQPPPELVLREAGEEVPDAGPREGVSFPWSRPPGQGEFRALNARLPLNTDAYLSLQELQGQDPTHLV
T3 sequence (looked up) 3: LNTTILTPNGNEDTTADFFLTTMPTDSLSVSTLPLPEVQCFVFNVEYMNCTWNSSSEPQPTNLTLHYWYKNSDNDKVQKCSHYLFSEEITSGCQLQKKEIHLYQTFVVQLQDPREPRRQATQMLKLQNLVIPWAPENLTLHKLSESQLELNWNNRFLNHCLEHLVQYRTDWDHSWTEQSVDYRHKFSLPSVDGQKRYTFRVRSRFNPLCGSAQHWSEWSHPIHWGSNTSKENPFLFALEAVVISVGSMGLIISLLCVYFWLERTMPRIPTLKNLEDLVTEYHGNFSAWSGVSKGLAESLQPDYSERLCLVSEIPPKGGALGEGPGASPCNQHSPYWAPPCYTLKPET
Put plainly: cell-based or functional assay.

Assay [4] deals with T1, human PDL1 transgenically expressed on …. Description: FACS on DLD1 cells expressing human PDL1, fluorescent anti-human-IgG detection; mean, SD 1294. On the procedure: as §1

T1 sequence (Q9NZQ7 19-290): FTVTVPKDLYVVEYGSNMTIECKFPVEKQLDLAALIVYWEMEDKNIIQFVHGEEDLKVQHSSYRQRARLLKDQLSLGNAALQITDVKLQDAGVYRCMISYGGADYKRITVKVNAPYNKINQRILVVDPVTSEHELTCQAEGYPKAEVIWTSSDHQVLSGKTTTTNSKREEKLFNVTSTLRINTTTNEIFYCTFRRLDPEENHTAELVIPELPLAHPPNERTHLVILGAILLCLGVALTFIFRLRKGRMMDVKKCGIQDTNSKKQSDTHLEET

B1: E1M1 (E1 anti-PDL1 antibody fused to MutIL2 IL2M1: F42K, Y45R) (other)
heavy: QIQLVQSGAEVKMPGASVTISCEASGYNFISYYIHWVRQAPGQGLEWMGFVVPSGGAAGYTQKFQGRLTVTRDTSTSTVYMDLNSLTSDDTAVYYCVREMSGGWFDFWGQGTLVTVSS[sequence of human IgG1 constant region not given]GGGGSGGGGSGGGGSGGGGSG[sequence of about 150 residues not given]
light: DIVMTQSPSSLSASVGDRVTITCRASQGIRNDLGWYQQKPGKAPKLLIYAASTLQSGVPSRFSGSGSGTDFTLTISSLQAEDVAVYYCQQYYSTPLTFGPGTKVDIKRTVAAPSVFIFPPSDEQLKSGTASVVCLLNNFYPREAKVQWKVDNALQSGNSQESVTEQDSKDSTYSLSSTLTLSKADYEKHKVYACEVTHQGLSSPVTKSFNRGEC
notes: The heavy and light entries include the secretory leader
A word on the EC50: it is the concentration needed to bring the measured effect to its halfway point. High values mean a less potent agent, low ones a more potent agent. In turn, B1 registered an EC50 in assay [1] of 2440 pM. Moreover, the “EC50 for Stat5 phosphorylation in non-Treg (CD4+CD25-) cells, median” value in assay [2] turned out to be 198 pM. The “EC50 for Stat5 phosphorylation in Treg (CD4+CD25high) cells, median” value in assay [3] worked out at 149 pM.

B2: E1M2 (E1 anti-PDL1 antibody fused to MutIL2 IL2M2: F42A, Y45R) (other)
heavy: QIQLVQSGAEVKMPGASVTISCEASGYNFISYYIHWVRQAPGQGLEWMGFVVPSGGAAGYTQKFQGRLTVTRDTSTSTVYMDLNSLTSDDTAVYYCVREMSGGWFDFWGQGTLVTVSS[sequence of human IgG1 constant region not given]GGGGSGGGGSGGGGSGGGGSG[sequence of about 150 residues not given]
light: DIVMTQSPSSLSASVGDRVTITCRASQGIRNDLGWYQQKPGKAPKLLIYAASTLQSGVPSRFSGSGSGTDFTLTISSLQAEDVAVYYCQQYYSTPLTFGPGTKVDIKRTVAAPSVFIFPPSDEQLKSGTASVVCLLNNFYPREAKVQWKVDNALQSGNSQESVTEQDSKDSTYSLSSTLTLSKADYEKHKVYACEVTHQGLSSPVTKSFNRGEC
notes: as for B1
The molecule B2 yielded an EC50 in assay [4] of 3200 pM. Also, the “EC50 for Stat5 phosphorylation in non-Treg (CD4+CD25-) cells, median” value in assay [2] stood at 207 pM. Further, the “EC50 for Stat5 phosphorylation in Treg (CD4+CD25high) cells, median” value in assay [3] was 198 pM.
